Assay results from article PMC12136788.
The list shows a part of the results.

T1: UNK ZnF1-3 (human, UniProt Q9C0B0 31-174)
T1 sequence: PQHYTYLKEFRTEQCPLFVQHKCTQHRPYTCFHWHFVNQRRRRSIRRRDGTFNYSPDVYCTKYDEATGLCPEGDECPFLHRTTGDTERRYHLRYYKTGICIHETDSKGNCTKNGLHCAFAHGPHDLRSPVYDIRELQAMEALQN

B1: chr2:135883765:135883766:+_ENSG00000115839_ENST00000442034|hu_hu|motif|central (ssRNA)
RNA: GGGAGUUCUACAGUCCGACGAUCAGAAUAAACAUCAUUAUCCACAAUGAUCCCUUCGGUCAGAUGAGGCCAUGUAGUAGCGGAAUGGAGUUCACUAAUAGGAUCUUCGCAGGCACCAAAUGGUAACUUGCCAAACUCCAAGCCCAACAGAGGAUUGAGCAUCA
B2: chr7:149068622:149068623:-_ENSMUSG00000025139_ENSMUST00000001950|mus_hu|mus_mus_mus_hu_False|8_108 (ssRNA)
RNA: GGGAGUUCUACAGUCCGACGAUCGUGCAGGUACUGAGUGUGGCUUGUGGUCUGUCCUGGGUUAGAGUUGUUAAUAUCACGGAACAUACCAUCUAGAACGUUCCAGUCCCGCCUGACACCUUCAUUCGCAAGAGGGCAGAAAUCCAACAGAGGAUUGAGCAUCA
B3: chr2:37459336:37459337:+_ENSG00000003509_ENST00000002125|hu_hu|FALSE|FALSE (ssRNA)
RNA: GGGAGUUCUACAGUCCGACGAUCCAACACCUCCUUCAUGUACUCGGCCACAGUGAUGGGACCAGUAGACUUUAUUUUGUACAUAAGAUGCCGCAGCAUCGGCGUCACCGGGUUUUCUGCAGGCUCAUUCCCGGAGCUGAAGUACAACAGAGGAUUGAGCAUCA
B4: chrX:71549762:71549763:+_ENSMUSG00000019087_ENSMUST00000019231|mus_mus|mus_mus_mus_hu_False|38_58 (ssRNA)
RNA: GGGAGUUCUACAGUCCGACGAUCAAACCCGUGUACUUCUUAUUGUUAGCACAACAUCACCAGAAAACGAUAACGACAGCUAAGCUGGACAGACAGUCAAGUAGUCUUUCCACACUCCCAAACUCAGGGAGCCCUAUAACCUUACAACAGAGGAUUGAGCAUCA
B5: 166231856_166232689_1510_CDS_ENSG00000109466_ENST00000226725|human|control|control (ssRNA)
RNA: GGGAGUUCUACAGUCCGACGAUCCCUCCUUGUAUUCAUGGGAGCUACAUGAAACCACUCAUUAGACUUUAUGUUGUAUGCUUCCACAGAUGACAAACCUGUACUCCCAUCAAAGCCUCCCACAGCGUAUAAUAAUCCAUUUAACAACAGAGGAUUGAGCAUCA
B6: 117017677_117017797_2070_CDS_ENSMUSG00000020823_ENSMUST00000090433|mouse|control|control (ssRNA)
RNA: GGGAGUUCUACAGUCCGACGAUCGGAGACCUGCAGGGAGGCCAGCACGUCGUCCACUCGGGGUAGGUUGGUGGCAGCACAUGCUGGCAUGGUGUGGAAUUUCCACUGUAGGAUGUAGAAGCCUGGCCACCUGGUCACAUGGGACAACAGAGGAUUGAGCAUCA
B7: chr12:73313434:73313435:-_ENSMUSG00000021087_ENSMUST00000021497|mus_hu|motif|central (ssRNA)
RNA: GGGAGUUCUACAGUCCGACGAUCAAAUAUCCUAAGAGUACAAGGAACAGCCUAAAAACAGCUGUUUUAAGGUUUGUCUCGGAGAUUAUGGUACUGGAGGGAGGGGGGAAAGACAAUCAAUUUGCAGUAAUGAGUAAGAAGAGACAACAGAGGAUUGAGCAUCA
B8: chr1:225611761:225611762:-_ENSG00000143815_ENST00000272163|hu_mus|hu_hu_hu_mus_True|18_88 (ssRNA)
RNA: GGGAGUUCUACAGUCCGACGAUCCCAGGCCAUCGGCCUCUGACCACUUCACCAUCGACAAACUUCCUACUUGGCAUUUUCUAAAAUUAGUCUGGCCGCGCUCCGGCGGGAACUCCAGACGGCUCCCGACAGUCACCAGCAGCCCAACAGAGGAUUGAGCAUCA
B9: chr19:16212804:16212805:+_ENSG00000167460_ENST00000300933|hu_mus|hu_hu_hu_mus_False|78_78 (ssRNA)
RNA: GGGAGUUCUACAGUCCGACGAUCAACAAUUCUGGAGUGAAGGAAAGAUGUAACAUGCAAUUAAUUAAAAGCUCAGUCAGAAGGCACAUGGGCAACAAUGAUCACCCCAGCAUUCUCGCUUGGAAUGCUUAAAGACAAUCUGUUCAACAGAGGAUUGAGCAUCA
B10: chr2:131764077:131764078:+_ENSMUSG00000079037_ENSMUST00000091288|mus_mus|motif|central (ssRNA)
RNA: GGGAGUUCUACAGUCCGACGAUCAUACAUGCAAAGUUACAAAUAUAGAAAACGUGAAGUACAUGCAGAUUCAAAGACCAGCGGGGGGUCUGCUUUGGAAUCCUACGGAACUGAGUGCACGCUGAAAGCCCAAGGGUCACACGGCAACAGAGGAUUGAGCAUCA
B11: chr19:10626314:10626315:-_ENSMUSG00000024667_ENSMUST00000059582|mus_hu|FALSE|FALSE (ssRNA)
RNA: GGGAGUUCUACAGUCCGACGAUCCAUACUGGAGAAAGCAGCCAAGGUGAGCACCUCAAGUAAAAGCUCUGAGCCACAGAAGAAGAGCAAGAUGCCAUUCAUGAUGGCUUCCAGGCGGAGUACGUAGGUCUGCAGCAGCAGGUACAACAGAGGAUUGAGCAUCA
B12: 94545830_94545950_330_CDS_ENSG00000089737_ENST00000330836|human|control|control (ssRNA)
RNA: GGGAGUUCUACAGUCCGACGAUCCUCCUCUUCUUCUGAAACAGCUUGUGCCUUUCUCUUGGGUGCUUCCUUUGAGAAGAGACUGGAGGGAUUCUUGGCAGGGGAGACCAACUGGUAAUCUGUCAAUUCCUCAAAGCACACCAACAACAGAGGAUUGAGCAUCA
B13: chr3:39104626:39104627:+_ENSG00000114742_ENST00000302313|hu_hu|motif|central (ssRNA)
RNA: GGGAGUUCUACAGUCCGACGAUCGUGCUGAUUGACACUCCAUAUUCUUAUGAUAGAGUCUCGACCGGCUGUGAAAAGUCGGUUUAGUGCUGGAUCCAGCUGCAGAGCAUUGACUCCAUUUCGGUUGUACUUCUCCACUUCAUCCAACAGAGGAUUGAGCAUCA
B14: chr9:82820052:82820053:-_ENSMUSG00000032253_ENSMUST00000034787|mus_mus|motif|central (ssRNA)
RNA: GGGAGUUCUACAGUCCGACGAUCACCAUGUCCUUGUCCUUCAAUCAUAUUGAAAUAAGAUCGAACUUUGACUCCUCUUGCGGGAUCCCACACUAUCACAUUUCCAUCAUGACCAGCAGAGAAGAGAACUCUAGGAUCAAAUGGCAACAGAGGAUUGAGCAUCA
B15: chr5:180277019:180277020:-_ENSG00000196670_ENST00000512132|hu_mus|FALSE|FALSE (ssRNA)
RNA: GGGAGUUCUACAGUCCGACGAUCAUGAAUCCUUUUAUGUUGUUCAAGGGCAGAACUGUAGUUGAAAGAUUUCUCACAAUAGCUGCAUUUAUAGGGCUUCUCCCCCAUGUGGAUUCCUUUGUGAUUUUUAAGGCUUGAGCGUGACAACAGAGGAUUGAGCAUCA
B16: chr12:39763582:39763583:-_ENSG00000139116_ENST00000544797|hu_mus|hu_hu_hu_mus_False|58_78 (ssRNA)
RNA: GGGAGUUCUACAGUCCGACGAUCCUCUAGGAACUGGGCAUUCACUUUGAAUUCAGGAGCAGGAAGCCCGUUUUUAAUUGCUAUGUGCUUUUUCUCAUCAAUACUCUUGAACAGGUGUCUAACAGCACGAGAGAUGAUGCCCUGCAACAGAGGAUUGAGCAUCA
B17: 96986530_96991664_427_3pUTR_ENSG00000090060_ENST00000216277|human|control|control (ssRNA)
RNA: GGGAGUUCUACAGUCCGACGAUCUACAGAUUGUGGAAGAUUCUUGCUUUCACUGAUUUCUCGUAUCCACUCUUUUACCAGGUUAUUUAGUUUUCCCAAAAUUAAAAUCCUGCGCUGCAGUUCCUCUUCCUCUUCAAAAACCCCCAACAGAGGAUUGAGCAUCA
B18: chr18:9315019:9315020:-_ENSMUSG00000024286_ENSMUST00000053917|mus_mus|FALSE|FALSE (ssRNA)
RNA: GGGAGUUCUACAGUCCGACGAUCCAUACAAUUCUAAACUUUUCCACGCUCACACAGGAGGAGUAUAUGAUAAAGCAAAUGCUAGAAUUUAUCUCAAACAAGGAAAACCUCACAAACCUCGGUCACCGCAACCUAAGAUGGGCACAACAGAGGAUUGAGCAUCA
B19: chr18:3457883:3457884:+_ENSG00000177426_ENST00000400167|hu_hu|motif|central (ssRNA)
RNA: GGGAGUUCUACAGUCCGACGAUCGGGUUAAGCUGUAAGUUUUGCCUGAAGCUCCAUCUCUGCAGCCCGUUUGAGUGCAACAUCCACGGGAAGCUGAAAUCCACUGAAGUCCUGGUUGAGGUCCGGUGGAGUAGGGGGAGGAGUCAACAGAGGAUUGAGCAUCA
B20: chr1:163112212:163112213:-_ENSG00000143248_ENST00000313961|hu_hu|hu_hu_hu_mus_False|68_88 (ssRNA)
RNA: GGGAGUUCUACAGUCCGACGAUCUUUUAUUAUCAGUAAGAGUGAGUCACAUAGUACGCAAAGUAUUGAAUACAAAAAUCAGGAAACAAACACUAUUGGUCCAGAAUUUAAAACUUUAUGAGCGAAGUGCUGGCACAGGACUUACAACAGAGGAUUGAGCAUCA
B21: chr5:37680062:37680063:+_ENSMUSG00000029121_ENSMUST00000031004|mus_hu|mus_mus_mus_hu_False|1_38 (ssRNA)
RNA: GGGAGUUCUACAGUCCGACGAUCUUUGGGUGUAGCUGGUACCUCGUACACAGGACCGUCAUACAUGCCCCUGGAAACCCCUUGCAAUCCAAAAACCUUGCUUCUGAUUUUGACGCGCUGGUACAGGUGCUCCGGGAAUGGCUUCAACAGAGGAUUGAGCAUCA
B22: chr1:39333270:39333271:-_ENSG00000214114_ENST00000397572|hu_mus|FALSE|FALSE (ssRNA)
RNA: GGGAGUUCUACAGUCCGACGAUCUUCUGCCAAUUCUAGGCGAAGCAGCUCUAUUUCUGGGUUUUCCGGGGUAGCAGCUCCUAAGUGAUGCUUUAAAAAAUCCAGAGCACUGGUGGGCUUCUCUGGUUCUUCAUAUAAGGCUACCAACAGAGGAUUGAGCAUCA

Molecular target: T1, UNK ZnF1-3
Experiment: nsRBNS (natural sequence RNA bind-n-seq); RBNS binding buffer (assumed for nsRBNS): 25 mM Tris pH 7.5, 150 mM KCl, 3 mM MgCl2, 0.01% Triton X-100, 500 ug/ml BSA, 20 U/ml SUPERase-In, 4 C; UNK is unkempt and MSI1 is Musashi-1; names of the RNAs are library labels; protein concentration not given here; high values mean tight binding

Binder | binding signal
B1 | 1.08 enrichment R
B2 | 0.932 enrichment R
B3 | 0.777 enrichment R
B4 | 0.927 enrichment R
B5 | 1.08 enrichment R
B6 | 0.956 enrichment R
B7 | 2.21 enrichment R
B8 | 1.21 enrichment R
B9 | 1.31 enrichment R
B10 | 1.53 enrichment R
B11 | 2.3 enrichment R
B12 | 0.78 enrichment R
B13 | 0.704 enrichment R
B14 | 1.1 enrichment R
B15 | 0.938 enrichment R
B16 | 1.27 enrichment R
B17 | 0.825 enrichment R
B18 | 1.66 enrichment R
B19 | 1.3 enrichment R
B20 | 1.56 enrichment R
B21 | 0.815 enrichment R
B22 | 0.891 enrichment R
